The results in this text go back to ChEMBL document CHEMBL5308541, “MAIP: An Open-Source Tool to Enrich High-Throughput Screening Output and Identify Novel, Druglike Molecules with Antimalarial Activity” (ACS Med Chem Lett, 2023).

The campaign covered roughly 150,000 compounds. About 540 (0.36%) showed an effect of 50% or more. This is one part of the list.

This experiment deals with Plasmodium falciparum. The experiment is described as follows: Primary screen in NF54 nanoGlo assay, in single point, at 2uM, 72h; a lower Z score goes with more inhibition. The conditions noted are these: timepoint 72 hour. Type of experiment: functional, Erythrocyte.
Broadly, the % Inhibition is the drop in the measured response relative to a control, in per cent. As for `O=C(Nc1ccc(NC2CCOCC2)cc1)c1c[nH]c2ncccc12`, the “% Inhibition” value is -1% and the Z score was 0.22.

With `OC1(c2ccc(Cl)cc2)CCN(C[C@@H]2CCCN3CCCC[C@H]23)CC1`, the “% Inhibition” value was 82% and the Z score is -16.27.

For `CCc1ncc(-c2c(-c3ccccc3)ncn2[C@H](c2nccn2C)C2CC2)cn1`, the “% Inhibition” value is -5% and the Z score came to 1.05.

In the case of `CC(=O)Nc1cc(CNCc2cccc(-c3ccccc3C)c2)cc(C(=O)N2CCN(C)CC2)c1`, the “% Inhibition” value is -9% and the Z score was 1.54.

Turning to `CC1CN(c2ccc(NC(=O)c3ccccc3-c3nc(C(C)C)no3)cn2)CC(C)O1` (stereo unspecified), the “% Inhibition” value was -3% and the Z score is listed as 0.55.

Regarding `O=C(Nc1cnc(N2CCNCC2)c(C(=O)N2CCCCCC2)c1)c1ccccc1`, the “% Inhibition” value is -8% and the Z score worked out at 1.38.

Regarding `Cc1n[nH]c2ncc(CNc3ccc(N4CCCC4)cn3)cc12`, the “% Inhibition” value is -8% and the Z score came out at 1.64.

For `FC(F)Oc1cc(-c2nc(-c3cccnc3OC3CCCC3)no2)ccn1`, the “% Inhibition” value is -15% and the Z score is given as 2.29.

`c1nnc(CN2CCN(C[C@@H]3CCCN4CCCC[C@H]34)CC2)[nH]1`: the “% Inhibition” value is recorded as -2% and the Z score came out at 0.35.

Regarding `CCOc1cc(NCCc2nc(-c3ccncc3)cs2)ncn1`, the “% Inhibition” value was -4% and the Z score was found to be 0.89.

As for `Cc1cc(N2CCC(N3CCC[C@H](C(=O)NCCc4ccccc4)C3)CC2)nc(N)n1`, the “% Inhibition” value was -12% and the Z score is recorded as 2.48.

With `CC(C)c1ccnc(N2CCN(CC(=O)Nc3cnccn3)CC2)n1`, the “% Inhibition” value is reported as 1% and the Z score is given as -0.16.

On to `Cc1cccc(N(C(=O)CCn2ncn(C)c2=O)C(C)C)c1`, for which the “% Inhibition” value is recorded as -10% and the Z score stood at 1.48.

As to `C[C@@H](CNC(=O)NC1(CO)CCCC1)c1ccc(Cl)cc1`, the “% Inhibition” value was -7% and the Z score is listed as 1.21.

Turning to `Cc1ccccc1-c1cccc(N2CCC(NCC3CCNCC3)CC2)c1`, the “% Inhibition” value was 98% and the Z score is listed as -19.56.

Turning to `COc1ccc(CN(C)Cc2c[nH]nc2C)cc1Cl`, the “% Inhibition” value was -4% and the Z score is 0.79.

For `O=C(Nc1cnn(CC(F)(F)F)c1)N1CCC(c2c[nH]c3ncccc23)CC1`, the “% Inhibition” value is listed as -1% and the Z score is 0.17.

`CCN1CCN(CCCNC(=O)c2ncoc2-c2ccccc2C(=O)N2CCCCC2)CC1`: the “% Inhibition” value is listed as -5% and the Z score was 0.81.

Regarding `COCCN1CCN(C(=O)Nc2ccc3nc(C(F)(F)F)oc3c2)CC1`, the “% Inhibition” value is -9% and the Z score is given as 1.53.

For the molecule `O=C(NC1CCN(CC2CCCCC2)CC1)[C@@H]1CN(S(=O)(=O)c2ccccc2Cl)CCO1`, the “% Inhibition” value was -11% and the Z score was determined as 1.81.

`CC[C@H](C)NC(=O)c1cccc(Nc2ccnc(-c3cccc(F)c3)n2)c1`: the “% Inhibition” value is listed as -7% and the Z score was found to be 1.15.

As for `C[C@@H](c1ccc(-c2ccccc2CN2CCNCC2)cc1)N1CCOCC1`, the “% Inhibition” value came out at 12% and the Z score is given as -2.09.

`Cc1cc(Nc2nccn(C)c2=O)c2ccccc2n1`: the “% Inhibition” value is 0% and the Z score was -0.07.

`O=C(NCCN1CCCCC1)c1cccc(-c2cnc3ccc(F)cn23)c1`: the “% Inhibition” value stood at 34% and the Z score is -5.92.

On to `CCOC1CN(C(=O)c2ccc(Cl)c(C)c2)CC1O` (stereo unspecified), for which the “% Inhibition” value came to 3% and the Z score was -0.61.

As for `CCN(Cc1nnc(-c2cccnc2)o1)CC1CCN(C2CCN(C)CC2)CC1`, the “% Inhibition” value is 4% and the Z score was -0.59.

Take `Fc1cccc2[nH]c(CN[C@H]3CCc4[nH]ncc4C3)cc12`: the “% Inhibition” value is 4% and the Z score is given as -0.95.

Take `CC(C)Nc1cc(-c2cc(OC(F)(F)F)ccc2O)ncn1`: the “% Inhibition” value is on record as 1% and the Z score is reported as -0.31.

Take `CCN1CCN(CCNCc2ccc(Cl)c(C(F)(F)F)c2)CC1`: the “% Inhibition” value is reported as 9% and the Z score is given as -1.53.

In the case of `COc1cccc(C2=CCN(C(=O)c3cc4n(n3)CCC4)C2)c1`, the “% Inhibition” value is on record as -16% and the Z score is given as 2.48.

For `Cc1cccc2sc(NCc3cccc(N4CCOCC4)n3)nc12`, the “% Inhibition” value is -4% and the Z score was found to be 0.61.

Consider `O=S(=O)(N[C@H]1CCN(c2ccccn2)C1)c1ccc(-c2cccc(C(F)(F)F)c2)cc1`, for which the “% Inhibition” value is -8% and the Z score stood at 1.41.

With `Cn1nnc(CNC2(c3ccc(C#N)cc3)CCOCC2)n1`, the “% Inhibition” value is -9% and the Z score was 1.89.

With `OC1CN(c2ncnc3ccsc23)CC1Cc1ccnc2ccccc12` (stereo unspecified), the “% Inhibition” value is -2% and the Z score is 0.5.

With `Cn1cc(C(=O)N2CCc3[nH]c4ccccc4c3C2)c(-c2ccc3c(c2)OCCCO3)n1`, the “% Inhibition” value is -4% and the Z score is listed as 0.53.

`CCc1cccc(Nc2cc(C(=O)OC)nc3c(F)cccc23)c1`: the “% Inhibition” value was -2% and the Z score is reported as 0.4.

As to `O=C(c1cc2occc2[nH]1)N1CCC[C@H](NCc2ccccc2)C1`, the “% Inhibition” value amounted to 2% and the Z score is listed as -0.36.

`CC(C)C1COCCC1Nc1cnn(-c2ccncc2)c1` (stereo unspecified): the “% Inhibition” value is listed as 3% and the Z score is recorded as -0.66.

Turning to `Cc1cc(N2CCCN(C3CCN(C(=O)c4ccncc4)CC3)CC2)ccn1`, the “% Inhibition” value was -2% and the Z score stood at 0.42.

In the case of `OC1CCN(Cc2cccc(NCc3cccc(OCCn4ccnc4)c3)c2)CC1`, the “% Inhibition” value is listed as -3% and the Z score is 0.55.

As for `COc1cc(-c2c(C#N)c(N)nc3c2c(=O)nc2sccn23)ccc1OCc1cccc(F)c1`, the “% Inhibition” value is recorded as -4% and the Z score is 0.63.

With `CCCN1CCC(N2CC(c3cccnc3)C(c3nc(C4CCCC4)no3)C2)CC1` (stereo unspecified), the “% Inhibition” value stood at 24% and the Z score is recorded as -4.28.

With `Cc1cnc(C(C)(C)NS(=O)(=O)c2cnn(C)c2)s1`, the “% Inhibition” value is listed as -10% and the Z score came to 1.48.

With `O=C(Cc1ccc(N2CCC(NCCc3cccc4ccccc34)CC2)cc1)N1CCC(O)CC1`, the “% Inhibition” value is listed as -8% and the Z score was 1.46.

With `COc1ccc(CNC2CCN(Cc3cccc(F)c3)CC2)cn1`, the “% Inhibition” value is reported as -4% and the Z score amounted to 0.76.

`CCc1nc(N)nc(NCCCc2nc(C)cs2)c1C`: the “% Inhibition” value is -2% and the Z score stood at 0.36.

Regarding `c1c(CN2CCCN(CCCN3CCCC3)CC2)nn2c1CNCC2`, the “% Inhibition” value is 4% and the Z score is given as -0.88.

Regarding `N#Cc1ccc(C#Cc2ccc(C#Cc3ccc(C#N)c(C#N)c3)cc2)cc1C#N`, the “% Inhibition” value is recorded as -1% and the Z score worked out at 0.21.

`CN1CCS(=O)(=O)CC1CC(=O)N[C@@H]1C[C@H]1c1cccc(Cl)c1` (stereo partly specified): the “% Inhibition” value is -9% and the Z score was 1.84.

For `OC[C@H]1c2cn[nH]c2CN1CCOCC1CCC1`, the “% Inhibition” value is 0% and the Z score was -0.02.

For the molecule `CNC(=O)[C@H](Cc1c[nH]cn1)NC(=O)CC1CCCCC1`, the “% Inhibition” value stood at 2% and the Z score is reported as -0.32.

Regarding `CC[C@]1(CCc2ccccc2)CCCN1C(=O)c1c[nH]c(=O)cc1C`, the “% Inhibition” value came out at 14% and the Z score is given as -2.39.

Regarding `COc1ccc(CNC[C@H]2CCN(CC(F)(F)F)C2)cc1Br`, the “% Inhibition” value was -7% and the Z score is reported as 1.11.

In the case of `c1ccc2oc(N3CCC(CNc4ncnc5cnccc45)CC3)nc2c1`, the “% Inhibition” value is given as 3% and the Z score is -0.43.

For the molecule `CC1OC2(CCN(C)CC2)CC1NCCCNc1ccccc1` (stereo unspecified), the “% Inhibition” value is recorded as -4% and the Z score came to 0.59.

For the molecule `N#Cc1ccc(NC2CCOC(C3CC3)C2)nc1NC1CCOC(C2CC2)C1` (stereo unspecified), the “% Inhibition” value was -2% and the Z score was found to be 0.35.

As for `O=C(Nc1cnccc1N1CCCCC1)c1cc(=O)[nH]c2ccc(Cl)cc12`, the “% Inhibition” value was determined as 3% and the Z score is on record as -0.5.

Regarding `Cc1nc(NCCNC(=O)Cc2c[nH]c3ccccc23)cc(N2CCCC2)n1`, the “% Inhibition” value was 6% and the Z score was -0.95.

As for `O=C(Nc1cccc(OCc2nnc(-c3ccc(Cl)cc3)o2)c1)c1ccc2cc[nH]c2c1`, the “% Inhibition” value is on record as -3% and the Z score is 0.6.

Regarding `c1sc(CN2CCC[C@H](CN3CCCCC3)C2)cc1CN1CCCC1`, the “% Inhibition” value was found to be 1% and the Z score is reported as -0.17.

Take `CC(C)[C@@H](C(=O)NCc1ccc(O)nc1)N1CCCCC1`: the “% Inhibition” value was -7% and the Z score came to 1.23.

Regarding `CN(Cc1cc(-c2ccncc2)no1)C(=O)Cc1n[nH]c2ccccc12`, the “% Inhibition” value was -1% and the Z score is 0.27.

For the molecule `CCON1CCC(NCCc2ccnc3ccccc23)CC1`, the “% Inhibition” value is -6% and the Z score is listed as 1.04.

With `Cc1ccc(-c2cc(C(=O)N3CCN4C(COCC4C4CC4)C3)[nH]n2)cc1` (stereo unspecified), the “% Inhibition” value amounted to 13% and the Z score was -2.27.

In the case of `Cn1ccnc(N2CCC(NCc3ccc4cn[nH]c4c3)CC2)c1=O`, the “% Inhibition” value worked out at 4% and the Z score is given as -0.77.

As to `Fc1ccc(CN2CCCN(c3nc(C(F)(F)F)nc4cnccc34)CC2)cc1`, the “% Inhibition” value is reported as -7% and the Z score was 1.03.

In the case of `FC(F)Oc1ccc(-c2cc(-c3ccc(OC(F)F)cc3)[nH]n2)cc1`, the “% Inhibition” value is on record as 2% and the Z score is recorded as -0.31.

Consider `COc1ccc2nc(NC(=O)N(C)Cc3nc(C)cs3)sc2c1`, for which the “% Inhibition” value is given as -6% and the Z score was found to be 1.16.

With `CNc1ncc(C(=O)NC2CCN(CCN(C)C)CC2)cn1`, the “% Inhibition” value was 1% and the Z score is -0.09.

With `O=C(CNc1ccc2nnc(-c3cccnc3)n2n1)N1CCC[C@H](c2nc(C3CCOCC3)no2)C1`, the “% Inhibition” value came out at 0% and the Z score was -0.09.

On to `CN1CCc2ncnc(NC[C@H](O)c3ccc(Cl)c(F)c3)c2C1`, for which the “% Inhibition” value came to 2% and the Z score is -0.28.

`CC(C(=O)Nc1cccc2ncccc12)N1CCOC(c2ccc(Cl)cc2)C1` (stereo unspecified): the “% Inhibition” value turned out to be 9% and the Z score is on record as -1.4.

Consider `CN(C)c1ncc(CN2CCN(c3nsc4ccccc34)CC2)cn1`, for which the “% Inhibition” value came out at 5% and the Z score is listed as -0.94.

On to `O=c1ccn(Cc2ccc(F)c3cccnc23)c2ccccc12`, for which the “% Inhibition” value is recorded as -10% and the Z score is given as 1.51.

With `O=C(c1nccc2ccccc12)N(CCN1CCCCC1)[C@H]1CCCNC1`, the “% Inhibition” value is given as -11% and the Z score was 1.97.

As to `COc1ccc(Cl)cc1Nc1cc(C)nc(N)n1`, the “% Inhibition” value is recorded as -9% and the Z score stood at 2.03.

For `O=C1CCN(Cc2ccncc2)CCC[C@H](C(=O)NCCN2CCC(N3CCCCC3)CC2)CCN1`, the “% Inhibition” value is on record as -10% and the Z score is on record as 1.71.

Take `O=c1[nH]ccnc1N1CCC[C@H](Nc2cnc3cc(F)c(F)cc3n2)C1`: the “% Inhibition” value is -11% and the Z score is 1.71.

Regarding `O=C(Nc1ccc2[nH]c(-c3ccccc3Cl)nc2c1)c1ccc(N2C(=O)CCC2=O)cc1`, the “% Inhibition” value was -1% and the Z score came to 0.13.

Regarding `CN(C)Cc1ccc(-c2ccccc2CNCc2ccc(N(C)CCC#N)cc2)cc1`, the “% Inhibition” value is reported as 13% and the Z score is listed as -2.17.

Regarding `CN(CCN1CCCC1)C(=O)c1ccc(-c2ccc3[nH]ccc3c2)cc1`, the “% Inhibition” value is given as -5% and the Z score stood at 0.74.

In the case of `Fc1cnc(NCCCn2ccc3ccccc32)nc1N1CCCC1`, the “% Inhibition” value is recorded as -4% and the Z score is recorded as 0.83.

In the case of `CN(C)CC(C)(O)CNc1nccc(NC2CCCOC2)n1` (stereo unspecified), the “% Inhibition” value is on record as 10% and the Z score is on record as -2.21.
